This is an account of results in publication PMC10120020.

No constants are given. Whether binding was seen depends on the method and setting. In cells and extracts the contact can be indirect. Some results given as binding are weak or reduced against the parent protein; the word gives no strength.

The target of this assay is STING (Calu-1 cells) (human (endogenous in Calu-1)), Q86WV6. Nature of the assay: co-IP; STAT2-deficient Calu-1 cells restored with WT, T404A, or T404E STAT2, stimulated with 2′3′cGAMP (8 μg/mL) for 3 h. As to conditions: remark: other sources report otherwise.

B1: IRF3 (Calu-1 cells), Q14653 1-427 (protein)
chain: MGTPKPRILPWLVSQLDLGQLEGVAWVNKSRTRFRIPWKHGLRQDAQQEDFGIFQAWAEATGAYVPGRDKPDLPTWKRNFRSALNRKEGLRLAEDRSKDPHDPHKIYEFVNSGVGDFSQPDTSPDTNGGGSTSDTQEDILDELLGNMVLAPLPDPGPPSLAVAPEPCPQPLRSPSLDNPTPFPNLGPSENPLKRLLVPGEEWEFEVTAFYRGRQVFQQTISCPEGLRLVGSEVGDRTLPGWPVTLPDPGMSLTDRGVMSYVRHVLSCLGGGLALWRAGQWLWAQRLGHCHTYWAVSEELLPNSGHGPDGEVPKDKEGGVFDLGPFIVDLITFTEGSGRSPRYALWFCVGESWPQDQPWTKRLVMVKVVPTCLRALVEMARVGGASSLENTVDLHISNSHPLSLTSDQYKAYLQDLVEGMDFQGPGES
Consider B1, for which the binding entry is “binds”.
